The structures appear in SMILES notation. Some values that stand alone complete this part of the results.

This series is described as follows: 12 month stability study: DSC (USP <891>). It counts as physicochemical. The following applies: 1 month. The procedure: Crystalline (3R)-1-(2-methylalanyl-D-tryptophyl)-3-(phenylmethyl)-3-piperidinecarboxylic acid 1,2,2-trimnethylhydrazide was placed in double plastic bags, closed under a nitrogen blanket, and placed inside a small fiberboard container, the physical appearance, water content, purity and crystallinity were tested every three months for a period of 12 months under a variety of conditions.

Where [1] appears, read: 5° C., second DSC thermal event.
[2] abbreviates: 25° C. 60% RH, first DSC thermal event.
Where [3] appears, read: 25° C. 60% RH, second DSC thermal event.

For `CN(C)N(C)C(=O)[C@@]1(Cc2ccccc2)CCCN(C(=O)[C@@H](Cc2c[nH]c3ccccc23)NC(=O)C(C)(C)N)C1` [crystalline anamorelin, (3R)-1-(2-methylalanyl-D-tryptophyl)-3-(phenylmethyl)-3-piperidinecarboxylic acid 1,2,2-trimethylhydrazide], the “DSC Onset” value by setting is: (5° C., first DSC thermal event) 81.8 °C; under setting [1], 116.0 °C; under setting [2], 107.0 °C; under setting [3], 121.3 °C. For the same molecule, the “DSC Peak” value (5° C., first DSC thermal event) came out at 110.4 °C; the “DSC Peak” value under setting [1] was 118.4 °C; the “DSC Peak” value under setting [2] turned out to be 110.3 °C; the “DSC Peak” value under setting [3] stood at 122.2 °C.

The values above are taken from patent US9975921B2, “Crystal forms of anamorelin” (Helsinn Healthcare SA, priority 2004, dated 2018).
